The values below come from publication PMC6664820, “Novel natural and synthetic inhibitors of solute carriers SGLT1 and SGLT2” (Pharmacology Research & Perspectives, 2019).

In all, about 1,900 compounds went through this assay and about 40 (2%) showed an effect of 50% or more. The list shows a part of the results.

This assay deals with human SGLT1 (hSGLT1) (human, UniProt P13866). The experiment in a line: primary screen, percent of control activity; higher = less effect of the substance. The arrangement: single well. To be noted: 50 µM. Put shortly: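 Single-point screen at 50 µmol/L in CHO-hSGLT1 cells, with 160 µmol/L 1-NBD-glucose in glucose-free DMEM for 90 min at 37°C. Fluorescence from isopropanol extracts was calibrated, and CHO wild-type uptake was subtracted. Data are percent of uptake without compound.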
Sequence of human SGLT1 (hSGLT1) (P13866 whole entry, looked up): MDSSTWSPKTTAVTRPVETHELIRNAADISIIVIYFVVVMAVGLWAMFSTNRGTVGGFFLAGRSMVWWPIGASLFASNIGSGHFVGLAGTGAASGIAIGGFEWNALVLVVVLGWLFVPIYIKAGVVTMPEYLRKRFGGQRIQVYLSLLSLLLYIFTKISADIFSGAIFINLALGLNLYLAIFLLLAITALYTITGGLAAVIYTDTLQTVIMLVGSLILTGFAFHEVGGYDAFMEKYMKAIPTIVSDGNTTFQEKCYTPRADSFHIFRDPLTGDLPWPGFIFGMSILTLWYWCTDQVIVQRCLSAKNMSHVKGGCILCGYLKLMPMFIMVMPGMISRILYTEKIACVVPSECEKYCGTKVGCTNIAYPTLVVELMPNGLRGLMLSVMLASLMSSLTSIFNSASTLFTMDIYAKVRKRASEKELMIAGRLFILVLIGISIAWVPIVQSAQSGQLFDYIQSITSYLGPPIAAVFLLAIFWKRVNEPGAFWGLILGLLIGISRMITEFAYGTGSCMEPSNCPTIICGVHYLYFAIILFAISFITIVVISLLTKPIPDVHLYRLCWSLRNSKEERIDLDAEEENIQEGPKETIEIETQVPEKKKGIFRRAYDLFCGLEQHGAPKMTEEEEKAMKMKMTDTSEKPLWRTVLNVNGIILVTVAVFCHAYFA
Turning to `C=C1CCC(C2CC(=O)OC2=O)C(=O)CCC2C1CC2(C)C` (stereo not shown), the “NORMALIZED SGLT1 ACTIVITY (%)” value came out at 96%.

Consider `C[C@H]1OC(O[C@H]2[C@@H](O)CC(O[C@H]3[C@@H](O)C[C@H](O[C@H]4CC[C@]5(C)C6CC[C@]7(C)[C@@H](C8=CC(=O)OC8)[C@@H](O)C[C@]7(O)[C@@H]6CC[C@@H]5C4)O[C@@H]3C)O[C@@H]2C)C[C@H](O)C1O` (stereo partly shown), for which the “NORMALIZED SGLT1 ACTIVITY (%)” value amounted to 90%.

In the case of `c1ccc(-c2ccc(C(c3ccccc3)n3ccnc3)cc2)cc1` (stereo not shown), the “NORMALIZED SGLT1 ACTIVITY (%)” value came to 78%.

As for `COc1cccc(-c2cc(=O)c3ccc(OC)cc3o2)c1`, the “NORMALIZED SGLT1 ACTIVITY (%)” value is 187%.

For the compound `CC1(C)C2CC[C@]3(C)C(C(=O)C=C4[C@@H]5C[C@@](C)(C(=O)O)CC[C@]5(C)CC[C@]43C)[C@@]2(C)CC[C@@H]1O` (stereo partly shown), the “NORMALIZED SGLT1 ACTIVITY (%)” value was determined as 339%.

Regarding `CC(C)OC(=O)Nc1cccc(Cl)c1`, the “NORMALIZED SGLT1 ACTIVITY (%)” value was 256%.

As to `Cc1cc(O)c2c(c1)C(=O)c1cccc(O)c1C2=O`, the “NORMALIZED SGLT1 ACTIVITY (%)” value is 121%.

With `O=C(O)c1cc2cc(Cl)ccc2[nH]1`, the “NORMALIZED SGLT1 ACTIVITY (%)” value was 238%.

For the compound `Cl.c1ccc(CC2=NCCN2)cc1`, the “NORMALIZED SGLT1 ACTIVITY (%)” value is 98%.

Regarding `CC(=O)O[C@]1(C(C)=O)CC[C@H]2[C@@H]3C=C(Cl)C4=CC(=O)[C@@H]5C[C@@H]5[C@]4(C)[C@H]3CC[C@@]21C`, the “NORMALIZED SGLT1 ACTIVITY (%)” value worked out at 127%.

With `Cc1cc(OC(=O)c2c(C)cc(O)cc2O)cc(O)c1C(=O)O`, the “NORMALIZED SGLT1 ACTIVITY (%)” value is reported as 93%.

As for `Cl.Cl.O=C(O)COCCN1CCN(C(c2ccccc2)c2ccc(Cl)cc2)CC1` (stereo not shown), the “NORMALIZED SGLT1 ACTIVITY (%)” value was 141%.

On to `CN1C(=O)CC[C@H]1c1cccnc1`, for which the “NORMALIZED SGLT1 ACTIVITY (%)” value was 84%.

Regarding `N[C@@H]1CONC1=O`, the “NORMALIZED SGLT1 ACTIVITY (%)” value is given as 67%.

Regarding `CC(=O)OC1CN2CCC1CC2` (stereo not shown), the “NORMALIZED SGLT1 ACTIVITY (%)” value worked out at 94%.

On to `CC(=O)N[C@@H](Cc1c[nH]c2ccccc12)C(N)=O`, for which the “NORMALIZED SGLT1 ACTIVITY (%)” value was determined as 93%.

`N[C@@H](CCC(=O)N[C@@H](CS)C(=O)NCC(=O)O)C(=O)O`: the “NORMALIZED SGLT1 ACTIVITY (%)” value is recorded as 92%.

Turning to `CC(C)c1ccc2c(c1)CCC1[C@](C)(CN)CCC[C@]21C.O=S(=O)(O)O` (stereo partly shown), the “NORMALIZED SGLT1 ACTIVITY (%)” value is 104%.

As for `C[C@]12CCC(=O)C=C1CCC1C2CC[C@@]2(C)C1CC[C@@H]2O` (stereo partly shown), the “NORMALIZED SGLT1 ACTIVITY (%)” value is listed as 98%.

With `O=NN(CCCl)C(=O)NCCCl`, the “NORMALIZED SGLT1 ACTIVITY (%)” value was 156%.

Consider `CC(=O)O[C@]1(C(C)=O)CCC2C3C[C@H](C)C4=CC(=O)CC[C@]4(C)C3CC[C@@]21C` (stereo partly shown), for which the “NORMALIZED SGLT1 ACTIVITY (%)” value is 118%.

On to `COc1ccc2c(c1OC)OC[C@@H](c1ccc(OC)c(OC)c1OC)C2`, for which the “NORMALIZED SGLT1 ACTIVITY (%)” value is reported as 131%.

For `CC(=O)Oc1ccccc1C(=O)O`, the “NORMALIZED SGLT1 ACTIVITY (%)” value was determined as 112%.

Regarding `C=C(C)C1Cc2c(ccc3c(=O)c4c(oc23)COc2cc(OC)c(OC)cc2-4)O1` (stereo not shown), the “NORMALIZED SGLT1 ACTIVITY (%)” value turned out to be 95%.

On to `Cl.O=C(O)CCC1NCC2CC1CN1CCCCC21` (stereo not shown), for which the “NORMALIZED SGLT1 ACTIVITY (%)” value was 120%.

Consider `C/C1=C\CCC(=O)C2CC(C)(C)C2CC1` (stereo not shown), for which the “NORMALIZED SGLT1 ACTIVITY (%)” value amounted to 93%.

As to `CSc1ccc2c(c1)C(N1CCN(C)CC1)Cc1ccccc1S2.O=C(O)/C=C\C(=O)O` (stereo not shown), the “NORMALIZED SGLT1 ACTIVITY (%)” value is 115%.

`COc1ccc(-c2c(OC)c3c(OC)c4c(cc3oc2=O)OC(C)(C)C=C4)cc1`: the “NORMALIZED SGLT1 ACTIVITY (%)” value is listed as 68%.

Take `CC(=O)Oc1c(-c2ccccc2)oc2c(CC=C(C)C)c3c(c(OC(C)=O)c2c1=O)C=CC(C)(C)O3`: the “NORMALIZED SGLT1 ACTIVITY (%)” value is on record as 128%.

Take `CN1CCc2c(c3ccccc3n2Cc2ccccc2)C1.O=S(=O)(O)c1cccc2c(S(=O)(=O)O)cccc12`: the “NORMALIZED SGLT1 ACTIVITY (%)” value is given as 69%.

Consider `N=C(N)NOCC[C@H](N)C(=O)O`, for which the “NORMALIZED SGLT1 ACTIVITY (%)” value turned out to be 92%.

For `NC(=O)N1c2ccccc2C=Cc2ccccc21`, the “NORMALIZED SGLT1 ACTIVITY (%)” value is on record as 132%.

With `CC(=O)[O][Cd][O]C(C)=O`, the “NORMALIZED SGLT1 ACTIVITY (%)” value amounted to 98%.

As to `CC1(C)C2C[C@@H](O)[C@]3(C)C(CC[C@@]4(C)[C@H](c5ccoc5)OC(=O)[C@H]5O[C@]543)[C@@]2(C)[C@@H](O)C[C@H]1O` (stereo partly shown), the “NORMALIZED SGLT1 ACTIVITY (%)” value came to 113%.

Take `Oc1cc(O)c2c(c1)O[C@H](c1ccc(O)c(O)c1)[C@@H](O)C2`: the “NORMALIZED SGLT1 ACTIVITY (%)” value amounted to 122%.

Turning to `COC(=O)[C@@H]1OC(=O)C2OC23[C@@]1(C)CCC1[C@]2(C)C(C[C@H](O)[C@]13C)C(C)(C)[C@H](OC(C)=O)C[C@@H]2OC(C)=O` (stereo partly shown), the “NORMALIZED SGLT1 ACTIVITY (%)” value was determined as 139%.

On to `CCCN1C[C@H](CSC)C[C@@H]2c3cccc4[nH]cc(c34)C[C@H]21.CS(=O)(=O)O`, for which the “NORMALIZED SGLT1 ACTIVITY (%)” value is given as 72%.

On to `Cc1ccc(O)c(C(CCN(C(C)C)C(C)C)c2ccccc2)c1.O=C(O)C(O)C(O)C(=O)O` (stereo not shown), for which the “NORMALIZED SGLT1 ACTIVITY (%)” value is given as 78%.

`CCN(CC)C(=O)c1cccc(C)c1`: the “NORMALIZED SGLT1 ACTIVITY (%)” value was 95%.

In the case of `CCCCOc1cc(C(=O)NCCN(CC)CC)c2ccccc2n1.Cl`, the “NORMALIZED SGLT1 ACTIVITY (%)” value amounted to 74%.

Regarding `O=C(O)[C@]1(O)C[C@@H](O)[C@@H](O)[C@H](O)C1`, the “NORMALIZED SGLT1 ACTIVITY (%)” value was 86%.

With `N#C/C(=C\c1cccc(O)c1)C(=O)O`, the “NORMALIZED SGLT1 ACTIVITY (%)” value was 112%.

Turning to `CC[C@H](C)[C@H](N)C(=O)N1CCC[C@H]1C(=O)N[C@H](C(=O)O)[C@@H](C)CC`, the “NORMALIZED SGLT1 ACTIVITY (%)” value was 98%.

On to `c1ccc2c3c([nH]c2c1)CNCC3`, for which the “NORMALIZED SGLT1 ACTIVITY (%)” value is reported as 101%.

Take `CC12CCC3c4ccc(OCc5ccccc5)cc4CCC3C1C[C@@H](O)[C@@H]2O` (stereo partly shown): the “NORMALIZED SGLT1 ACTIVITY (%)” value is 140%.

Take `CNc1ccc(C(=O)CC(O)CCC(C)C2OC(=O)CC(O)CC(=O)CC(O)CC(O)CC(O)CC(O)CC3(O)CC(O)C(C(=O)OC)C(CC(O[C@@H]4O[C@H](C)[C@@H](O)[C@H](N)[C@@H]4O)/C=C/C=C/C=C/C=C/C=C/C=C/C=C/C2C)O3)cc1` (stereo partly shown): the “NORMALIZED SGLT1 ACTIVITY (%)” value amounted to 114%.

In the case of `COc1ccc(-c2cc(=O)c3c(OC)c(OC)c(OC)c(OC)c3o2)cc1OC`, the “NORMALIZED SGLT1 ACTIVITY (%)” value is recorded as 210%.

With `CC(C)(OC(=O)c1ccccc1)[C@@H]1Cc2cc3ccc(=O)oc3cc2O1`, the “NORMALIZED SGLT1 ACTIVITY (%)” value worked out at 55%.

In the case of `N[C@@H](Cc1cc(I)c(Oc2cc(I)c(O)c(I)c2)c(I)c1)C(=O)O`, the “NORMALIZED SGLT1 ACTIVITY (%)” value is on record as 256%.

Take `C=CCc1ccccc1OCC(O)CNC(C)C.Cl` (stereo not shown): the “NORMALIZED SGLT1 ACTIVITY (%)” value was determined as 74%.

Regarding `Cc1cc(CC(=O)O)n(C)c1C(=O)c1ccc(Cl)cc1`, the “NORMALIZED SGLT1 ACTIVITY (%)” value is listed as 153%.

On to `COc1cc(OC)cc(OC)c1`, for which the “NORMALIZED SGLT1 ACTIVITY (%)” value is 127%.

Consider `O=C(Cn1ccnc1[N+](=O)[O-])NCCO`, for which the “NORMALIZED SGLT1 ACTIVITY (%)” value came to 119%.

Consider `O=C(O)CCCCCCCCCCCC[C@@H]1C=CCC1`, for which the “NORMALIZED SGLT1 ACTIVITY (%)” value stood at 178%.

With `O=C(O)CCCOc1ccc(Cl)cc1Cl`, the “NORMALIZED SGLT1 ACTIVITY (%)” value is on record as 352%.

Take `COc1cc2c(cc1-c1cc3cc4ccoc4cc3oc1=O)OCO2`: the “NORMALIZED SGLT1 ACTIVITY (%)” value was 84%.

For the compound `COc1ccc2c(c1)O[C@@H]1COc3cc(OC)c(OC)cc3[C@@H]1C2=O`, the “NORMALIZED SGLT1 ACTIVITY (%)” value is on record as 255%.

Consider `Cc1c(OCC(F)(F)F)ccnc1CS(=O)c1nc2ccccc2[nH]1` (stereo not shown), for which the “NORMALIZED SGLT1 ACTIVITY (%)” value was 183%.

In the case of `CC(C)=CCOc1c2occc2cc2ccc(=O)oc12`, the “NORMALIZED SGLT1 ACTIVITY (%)” value stood at 161%.

As to `COc1ccc(C(C)=O)c(OC)c1`, the “NORMALIZED SGLT1 ACTIVITY (%)” value is on record as 145%.

As for `COc1ccccc1N1CCNCC1.Cl`, the “NORMALIZED SGLT1 ACTIVITY (%)” value was found to be 129%.
